The whole screen tested about 320,000 compounds, of which about 200 (0.062%) were called active. Inconclusive means that the source gave no clear call. Such entries were picked first, then a sample of the others. Calls come from the whole dose curve; as a rule, active = well fitted activation curve with a large enough effect; inconclusive = small, poorly fitted or top-dose-only effect; inactive = no such curve, though single readings can be large or run the other way. No potency is given beside an inconclusive call; the fits are too rough.
Experiment: qHTS assay for re-activators of p53 using a Luc reporter; note: nearly all actives have a fitted effect of over 45% in size; for activity change, positive = activation: % of control where 0% means no effect
Conditions: H1299 p53-A138V BP100-luciferase reporter, luminescence, 24 h; series mostly up to 92.2 µM; activity change, positive = activation: at the top concentration
How it was run: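 H1299 (p53-null), stable ts p53-A138V + BP100-Luc; 1000 cells/well, Opti-MEM/10% FBS; cpd 4 pt, 1:5; 24 h, 37 deg C, 5% CO2; detection reagent 10 min RT; luminescence.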
In the case of COc1ccc(C(CC(=O)N2CCCCC2)c2c(OC)cc(OC)c3c(-c4ccccc4)cc(=O)oc23)cc1 (stereo not drawn), the “activity change, positive = activation” value is reported as inactive: -4.36%.
For COc1ccc2c(Cl)c(C(=O)NCc3ccco3)sc2c1, the Potency was inconclusive [activator, single point].
In the case of Cc1cccc(NC(=S)Nn2cnnc2)c1C, the Potency is reported as inconclusive [activator, partial curve, poor fit].
For C=CCNC(=O)/C(C#N)=C/c1ccccc1Cl, the “activity change, positive = activation” value was inactive: -2.7%.
With COC(=O)c1sccc1NC(=O)Nc1ccc(C(C)=O)cc1 the Potency was inconclusive [activator, single point].
With CCOc1ccc2c(c1)OC(c1ccc(C)cc1)(C(F)(F)F)NC2=O (stereo not drawn) the Potency was inconclusive [activator, single point].
With Fc1ccc2cnc(-c3ccccc3)c(-c3cccc(C(F)(F)F)c3)c2c1 the “activity change, positive = activation” value was inactive: 4.56%.
In the case of COc1cccc(/C=N/NC(=O)c2[nH]nc3c2CCc2ccccc2-3)c1O, the Potency is reported as inconclusive [activator, partial curve, poor fit].
In the case of Cc1cccc(Cc2c(C)nc3c(C(=O)N4CCN(Cc5ccc6c(c5)OCO6)CC4)cnn3c2C)c1, the “activity change, positive = activation” value is reported as inactive: 1.56%.
For O=C(Nc1nc2ccccc2s1)c1ccccc1, the Potency was inconclusive [activator, partial curve, poor fit].
For CC(=O)N1c2ccc(S(=O)(=O)N(C)CC(=O)Nc3ccccc3C)cc2CC1C (stereo not drawn), the “activity change, positive = activation” value was inactive: -7.19%.
In the case of Clc1cccc(/C(Cc2nc3ccccc3[nH]2)=N\Nc2ccccc2)c1, the Potency is reported as inconclusive [activator, full curve, poor fit].
With CCc1cc2c(=O)c(-c3cscn3)coc2cc1O the Potency was inconclusive [activator, partial curve, poor fit].
For CCOC(=O)N1CCN(CCC(=O)Nc2cc(C)ccc2C)CC1, the Potency was inconclusive [activator, single point].
With Cc1ccc(COn2c(-c3ccc(Cl)cc3)nc3ccc([N+](=O)[O-])cc32)cc1 the Potency was inconclusive [activator, single point].
For Cc1c(C(=O)Nc2ccc(Br)cc2)cnn1C, the Potency was inconclusive [activator, full curve, poor fit].
For O=C(COC(=O)c1ccccc1Cl)NCCC1=CCCCC1, the “activity change, positive = activation” value was inactive: 18.1%.
With CCOC(=O)c1ccc2nc(NC(=O)c3ccco3)sc2c1 the Potency was inconclusive [activator, partial curve, poor fit].
With N#C/C(=C(/O)COC(=O)c1ccc(Cl)c(S(=O)(=O)N2CCOCC2)c1)c1nc2ccccc2[nH]1 the Potency was inconclusive [activator, partial curve].
With O=C(CSc1nc2ccccc2o1)N/N=C/c1ccc(O)c(O)c1 the Potency was inconclusive [activator, partial curve, poor fit].
With CCCn1nnnc1NCc1ccc(N(C)C)cc1 the Potency was inconclusive [activator, single point].
With CCn1cc(C(=O)NCc2ccco2)c(=O)c2cc(S(=O)(=O)N3CCC(C)CC3)ccc21 the Potency was inconclusive [activator, single point].
With Cn1c(=O)n(C)c2cc(NS(=O)(=O)c3ccccc3[N+](=O)[O-])ccc21 the Potency was inconclusive [activator, partial curve, poor fit].
With O=C(O)CC1(CC(=O)NCc2ccc(C(F)(F)F)cc2)CCCCC1 the “activity change, positive = activation” value was inactive: -2.24%.
In the case of Cc1ccccc1NC(=O)c1onc2c1CCCC2, the Potency is reported as inconclusive [activator, full curve, poor fit].
In the case of CCN1CCn2c3c(c4cc(Cl)ccc42)CCCC31 (stereo not drawn), the “activity change, positive = activation” value is reported as inactive: 11.2%.
For CCCc1[nH]nc2c1C(c1ccc(OCCN3CCOCC3)c(OC)c1)C(C#N)=C(N)O2 (stereo not drawn), the Potency was inconclusive [activator, partial curve, poor fit].
With C/C(=N\O)c1ccc2c3c([nH]c2c1)CCCC3 the Potency was inconclusive [activator, partial curve, poor fit].
In the case of CCOc1ccc(/C=N/NC(=O)C2CC2)c(OCC)c1, the “activity change, positive = activation” value is reported as inactive: 14.8%.
For CC(=O)Nc1nonc1NC(=O)c1ccc(C(C)(C)C)cc1, the Potency was inconclusive [activator, full curve, poor fit].
In the case of Cc1noc(C)c1S(=O)(=O)N1CCN(c2ccc([N+](=O)[O-])cc2)CC1, the “activity change, positive = activation” value is reported as inactive: -8.18%.
For O=C(O)c1cc(N/N=C/c2cccc3ccccc23)ccc1Cl, the Potency was inconclusive [activator, partial curve, poor fit].
In the case of C=CCC(NCc1ccco1)c1ccc(OC)cc1OC (stereo not drawn), the “activity change, positive = activation” value is reported as inactive: 1.79%.
For O=C(CCc1ccc(O)c(O)c1)N/N=C/c1ccc2c(c1)OCO2, the Potency was inconclusive [activator, single point].
With COc1ccc(C(=O)Nc2nnc(SCC(=O)NC3CC3)s2)cc1 the Potency was inconclusive [activator, partial curve, poor fit].
For Cc1ccc(C(=O)/C=C/Nc2ccc([N+](=O)[O-])cc2Br)cc1, the Potency was inconclusive [activator, full curve, poor fit].
For N=C1SCC(=O)N1c1nc(-c2ccccc2)cs1, the “activity change, positive = activation” value was inactive: 17.9%.
With CN(C)C(=O)CSc1nnc(CCCCCNC(=O)OC(C)(C)C)o1 the Potency was inconclusive [activator, partial curve, poor fit].
In the case of CCCCCCOc1cccc(N)c1, the Potency is reported as inconclusive [activator, single point].
With Cc1ccc(C=Nc2ccc(N(C)C)cc2)o1 the Potency was inconclusive [activator, partial curve, poor fit].
For COc1ccc(Nc2cc(Nc3ccccc3)ncn2)cc1, the Potency was inconclusive [activator, partial curve, poor fit].
In the case of COc1cc2c(cc1OC)-c1cc(OCc3ccccc3Cl)nc(=O)n1CC2, the “activity change, positive = activation” value is reported as inactive: -2.04%.
With Cc1ccc2cc3c(nc2c1)N(Cc1ccco1)CC3 the Potency was inconclusive [activator, single point].
With Cc1noc(C)c1C(=O)Nc1nc2ccc(F)cc2s1 the Potency was inconclusive [activator, partial curve, poor fit].
With Cc1ccc(CNC(=O)COC(=O)c2cncc(Br)c2)cc1 the “activity change, positive = activation” value was inactive: 5.44%.
For O=C(CCCOc1ccc(Cl)cc1)N1CCCCC1, the Potency was inconclusive [activator, partial curve].
With Cc1ccc(-c2nn3c(C)nnc3c3ccccc23)cc1S(=O)(=O)NC(C)(C)CO the “activity change, positive = activation” value was inactive: -7.55%.
In the case of COc1ccc(-c2nnc(SCC(=O)O)n2Cc2ccccc2)cc1, the Potency is reported as inconclusive [activator, single point].
For O=C(COc1ccccc1Br)Nc1ccc2c(c1)OCCCO2, the Potency was inconclusive [activator, partial curve, poor fit].
In the case of CCOC(=O)N/N=C1\CCc2ccccc21, the Potency is reported as inconclusive [activator, partial curve, poor fit].
With COc1cccc(/C=C2\SC(=S)N(NS(=O)(=O)c3ccc(C)cc3)C2=O)c1OC the “activity change, positive = activation” value was inactive: 5.41%.
In the case of CSCCC(=O)N1CCC(n2nccc2NC(=O)c2ccc3c(c2)OCO3)CC1, the Potency is reported as inconclusive [activator, partial curve, poor fit].
For CCCn1c(CNc2ccccc2O)nc2ccccc21, the Potency was inconclusive [activator, partial curve, poor fit].
In the case of Cc1cccc(C)c1NC(=O)CN(C)CC(=O)N1CC(=O)Nc2ccccc21, the Potency is reported as inconclusive [activator, single point].
With CCCCc1ccc(NC(=O)CN2NS(=O)(=O)c3ccccc3C2=O)cc1 the “activity change, positive = activation” value was inactive: 6.83%.
In the case of CCOc1ccc(N(CC(=O)Nc2cc(C)cc(C)c2)S(C)(=O)=O)cc1, the Potency is reported as inconclusive [activator, partial curve, poor fit].
With Cc1ccc(C(C#N)c2ccc3c(C(F)(F)F)cc(C(F)(F)F)nc3n2)cc1 (stereo not drawn) the Potency was inconclusive [activator, single point].
For O=C(Nn1cnnc1)c1cc(-c2cccc(Br)c2)nc2ccccc12, the “activity change, positive = activation” value was inactive: 11.7%.
For CCC(=O)Nc1nc2ccc3sc(C)nc3c2s1, the Potency was inconclusive [activator, partial curve, poor fit].
With O=C(Nc1ccccn1)[C@@H]1CCC(=O)N1C(=O)OCc1ccccc1 the Potency was inconclusive [activator, partial curve, poor fit].
For CC(C)(C)c1ccc(NC(=O)C2=CC=CN3CCS(=O)(=O)N=C23)cc1, the Potency was inconclusive [activator, full curve, poor fit].
With CN(C)c1ccc(/C=N/NC(=O)c2ccccc2)cc1 the “activity change, positive = activation” value was inactive: -0.497%.
With O=C(Nc1cc(Cl)ccc1Cl)C1CCCO1 (stereo not drawn) the Potency was inconclusive [activator, single point].
With CN(C)c1ccc(N=Cc2nc(-c3ccccc3)oc2OC(=O)c2cccc(Br)c2)cc1 the Potency was inconclusive [activator, partial curve, poor fit].
In the case of c1ccc(N2CC3CCc4ccccc4C3=N2)cc1 (stereo not drawn), the Potency is reported as active: 44.7 µM.
With COc1ccc(C(=O)/C=C/c2ccc(-c3ccccc3)cc2)cc1CSCC(=O)O the Potency was inconclusive [activator, partial curve, poor fit].
With c1ccc(Cn2nc(-c3ccccc3)nc2-c2ccccc2)cc1 the Potency was inconclusive [activator, full curve, poor fit].
With O=C(CC(Nc1cccc(Cl)c1Cl)C(=O)OCC(=O)c1cccs1)c1ccccc1 (stereo not drawn) the Potency was inconclusive [activator, partial curve, poor fit].
Potency is the fitted concentration of half-maximal effect; tags give direction and shape of the fitted curve.
